Source: PubChem BioAssay AID2528 (National Center for Advancing Translational Sciences (NCATS), 2010)
Values joined by “and” are separate entries in the source; they are usually repeats but may differ in a detail not shown here. Equal entries are not always repeated. The whole screen tested about 350,000 compounds, of which about 700 (0.2%) were called active. Calls follow the shape of the dose curve; as a rule, active = well fitted inhibition curve with a large enough effect; inconclusive = small, poorly fitted or top-dose-only effect; inactive = flat fitted curve, though single readings scatter. Only a part is listed here, and it is no random draw. A structure can be active in one record and inactive in another.
Also: nearly all actives have a fitted effect of over 35% in size.
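For activity change, negative = inhibition in this document: plate controls were vehicle for no effect and no enzyme for full effect.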
Potency is read from the fitted curve at half-maximal effect.

The compounds below were run against RecQ-like DNA helicase BLM (Homo sapiens) (UniProt P54132) (assay: qHTS Assay for Inhibitors of Bloom's syndrome helicase (BLM)). Settings: recombinant BLM DNA unwinding, fluorescence dequenching; series mostly up to 56.1 µM; activity change, negative = inhibition: at the top concentration.
Chain of UniProt P54132 (P54132 whole entry, looked up): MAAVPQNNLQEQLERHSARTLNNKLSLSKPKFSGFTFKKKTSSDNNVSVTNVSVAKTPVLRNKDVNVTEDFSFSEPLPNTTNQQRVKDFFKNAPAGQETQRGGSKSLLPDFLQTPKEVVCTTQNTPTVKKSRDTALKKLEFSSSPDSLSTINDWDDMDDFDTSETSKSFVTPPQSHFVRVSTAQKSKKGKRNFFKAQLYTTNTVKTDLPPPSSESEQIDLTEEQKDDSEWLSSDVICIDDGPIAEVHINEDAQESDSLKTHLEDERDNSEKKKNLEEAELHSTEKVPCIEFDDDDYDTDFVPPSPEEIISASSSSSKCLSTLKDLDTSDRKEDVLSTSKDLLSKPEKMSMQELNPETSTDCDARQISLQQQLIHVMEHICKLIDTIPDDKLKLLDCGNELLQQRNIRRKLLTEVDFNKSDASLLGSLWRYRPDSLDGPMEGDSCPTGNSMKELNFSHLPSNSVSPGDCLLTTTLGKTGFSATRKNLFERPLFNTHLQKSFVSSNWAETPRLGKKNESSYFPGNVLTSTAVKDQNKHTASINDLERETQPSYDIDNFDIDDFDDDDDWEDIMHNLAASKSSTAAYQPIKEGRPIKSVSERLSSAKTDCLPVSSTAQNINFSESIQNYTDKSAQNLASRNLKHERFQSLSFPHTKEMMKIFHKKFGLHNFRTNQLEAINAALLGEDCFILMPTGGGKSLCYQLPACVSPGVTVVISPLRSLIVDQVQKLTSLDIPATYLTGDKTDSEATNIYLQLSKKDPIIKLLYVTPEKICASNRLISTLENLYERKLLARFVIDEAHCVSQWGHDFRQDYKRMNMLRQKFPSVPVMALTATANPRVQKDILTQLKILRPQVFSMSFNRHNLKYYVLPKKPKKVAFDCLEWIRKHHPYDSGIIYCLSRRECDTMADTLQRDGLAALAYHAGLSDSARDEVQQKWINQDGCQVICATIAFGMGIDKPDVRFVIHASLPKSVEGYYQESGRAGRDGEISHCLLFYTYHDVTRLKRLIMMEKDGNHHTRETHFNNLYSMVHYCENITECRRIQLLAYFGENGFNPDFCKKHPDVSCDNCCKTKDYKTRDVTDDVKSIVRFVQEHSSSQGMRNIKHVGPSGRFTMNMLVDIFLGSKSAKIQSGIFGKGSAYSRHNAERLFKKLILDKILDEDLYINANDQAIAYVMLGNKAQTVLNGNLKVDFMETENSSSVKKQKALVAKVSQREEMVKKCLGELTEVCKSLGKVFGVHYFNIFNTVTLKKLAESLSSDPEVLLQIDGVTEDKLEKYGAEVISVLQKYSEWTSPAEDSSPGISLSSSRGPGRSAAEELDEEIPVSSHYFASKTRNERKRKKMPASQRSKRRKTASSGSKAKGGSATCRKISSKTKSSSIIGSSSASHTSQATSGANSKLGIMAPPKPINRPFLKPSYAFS
With `CCN1C[C@]2(C)CC[C@H](O)[C@@]34C5C[C@@H]6[C@@H](OC)C[C@@](O)(C5[C@H]6O)[C@@H](CC23)[C@@H]14` (stereo partly specified) the “activity change, negative = inhibition” value was inactive: 1.61%.
`C=CCN1CC[C@]23c4c5ccc(O)c4OC2C(=O)CC[C@]3(O)C1C5` (stereo partly specified) was tested, and the “activity change, negative = inhibition” value was inactive: -1.09%.
In the case of `O=C1C=CC(=O)c2c(O)cccc21`, the Potency is reported as active: 3.16 µM and active: 5.62 µM.
In the case of `Oc1cc2c(cc1O)[C@H]1c3ccccc3CN[C@@H]1CC2`, the “activity change, negative = inhibition” value is reported as inactive: -3.18%.
With `CCCN(CCC)[C@@H]1CCc2ccc(O)cc2C1` the “activity change, negative = inhibition” value was inactive: 1.01%.
With `CC1=NCCc2c1[nH]c1cc(O)ccc21` the Potency was “inactive”.
With `C[N+]1(C)C2CC(OC(=O)C(CO)c3ccccc3)CC1C1OC12` (stereo unspecified) the “activity change, negative = inhibition” value was inactive: 4.63%.
For `CN1C[C@H](C(=O)N[C@]2(C)O[C@@]3(O)C4CCCN4C(=O)[C@H](Cc4ccccc4)N3C2=O)C[C@@H]2c3cccc4[nH]cc(c34)C[C@H]21` (stereo partly specified), the Potency was “inactive”.
`CC(C)OCCCNC(=O)c1c(N)n(CC2CCCO2)c2nc3ccccc3nc12` (stereo unspecified) was tested, and the Potency was active: 5.01 µM.
With `C/C(O)=C(/C#N)C(=O)Nc1cc(Br)ccc1Br` the “activity change, negative = inhibition” value was inactive: 3.46%.
In the case of `CC(C)CC1C(=O)N2CCCC2C2(O)O[C@@](NC(=O)C3C=C4c5cccc6[nH]c(Br)c(c56)CC4N(C)C3)(C(C)C)C(=O)N12` (stereo partly specified), the “activity change, negative = inhibition” value is reported as inactive: -4.92%.
In the case of `C[C@H](N)[C@H](O)c1ccc(O)c(O)c1`, the “activity change, negative = inhibition” value is reported as inactive: -18% [at 21.4 µM].
`CC(C)N(CCC(C(N)=O)(c1ccccc1)c1ccccn1)C(C)C` (stereo unspecified) was tested, and the Potency was “inactive”.
With `CC1=CC(=O)c2c(O)cccc2C1=O` the “activity change, negative = inhibition” value was inactive: -17.7%.
For `OC1CCCCC1N1CCC(c2ccccc2)CC1` (stereo unspecified), the Potency was “inactive”.
For `CCOc1cccc(N2C(=O)/C(=C/c3ccco3)C(=O)NC2=S)c1`, the Potency was active: 28.2 µM.
For `CCN(CC)c1ncnc2c1ncn2[C@@H]1O[C@@H](COP(=O)(O)OP(=O)(O)C(Br)(Br)P(=O)(O)O)[C@H](O)[C@H]1O`, the “activity change, negative = inhibition” value was inactive: 7%.
For `C=CCN1C[C@H](C)N([C@H](c2ccc(C(=O)N(CC)CC)cc2)c2cccc(OC)c2)C[C@H]1C`, the Potency was “inactive”.
`CNC(=O)Oc1ccc2c(c1)[C@@]1(C)CCN(C)C1N2C` (stereo partly specified) was tested, and the Potency was “inactive”.
For `NCC1O[C@@H](O[C@H]2C(O)C(O[C@@H]3C(O[C@H]4OC(CO)C(O)C(O)C4N)C(N)CC(N)[C@H]3O)O[C@@H]2CO)C(N)C(O)C1O` (stereo partly specified), the “activity change, negative = inhibition” value was inactive: 43.5%.
In the case of `N[C@@]1(C(=O)O)CC[C@H](C(=O)O)C1`, the Potency is reported as “inactive”.
With `C=CCN1CCC2(C)c3cc(O)ccc3C[C@H]1[C@H]2C` the “activity change, negative = inhibition” value was inactive: 3.96%.
In the case of `C=C(C)[C@H]1CN[C@H](C(=O)O)[C@H]1CC(=O)O`, the Potency is reported as “inactive”.
For `CCOC(=O)c1ncn2c1CN(C)C(=O)c1cc(F)ccc1-2`, the Potency was “inactive”.
`O=NN(CCCl)C(=O)NCCCl` was tested, and the Potency was “inactive”.
With `C[C@H](N)Cc1cnc[nH]1` the “activity change, negative = inhibition” value was inactive: 1.77%.
With `Nc1nc(N)c2nc(CNc3ccc(C(=O)NC(CCC(=O)O)C(=O)O)cc3)cnc2n1` (stereo unspecified) the “activity change, negative = inhibition” value was inactive: -0.928%.
For `Cc1ncc(CNC(=O)N(CCCl)N=O)c(N)n1`, the “activity change, negative = inhibition” value was inactive: 4.35%.
`COc1ccc2[nH]cc(CCN)c2c1` was tested, and the Potency was “inactive”.
For `CC[C@]1(O)C(=O)OCc2c1cc1n(c2=O)Cc2cc3ccccc3nc2-1`, the “activity change, negative = inhibition” value was inactive: 4.17%.
With `CCCCc1ccc(C(=O)O)nc1` the Potency was “inactive”.
With `CCN(CC)C(=O)N[C@@H]1C[C@@H]2c3cccc4[nH]cc(c34)C[C@H]2N(C)C1` the “activity change, negative = inhibition” value was inactive: -5.58%.
In the case of `C=CCN1CCC23c4c5ccc(O)c4O[C@H]2C(=O)CC[C@@]3(O)C1C5` (stereo partly specified), the “activity change, negative = inhibition” value is reported as inactive: 6.48%.
In the case of `C[N+](C)(C)CC#CCOC(=O)Nc1cccc(Cl)c1`, the “activity change, negative = inhibition” value is reported as inactive: 0.921%.
`O=C1NCN(c2ccccc2)C12CCN(CC1COc3ccccc3O1)CC2` (stereo unspecified) was tested, and the “activity change, negative = inhibition” value was inactive: -0.206%.
For `Cc1c(C(=O)c2cccc3ccccc23)c2cccc3c2n1[C@H](CN1CCOCC1)CO3`, the “activity change, negative = inhibition” value was inactive: -2.71%.
With `CC[C@H]1C(=O)OC[C@H]1Cc1cncn1C` the “activity change, negative = inhibition” value was inactive: 4.51% [at 21.4 µM].
`NCCCCN=C(N)N` was tested, and the Potency was “inactive”.
In the case of `Cc1o[nH]c(=O)c1C[C@@H](N)C(=O)O`, the Potency is reported as “inactive”.
`NC(=NCCC[C@H](N)C(=O)O)N[N+](=O)[O-]` was tested, and the “activity change, negative = inhibition” value was inactive: -3.08%.
With `CC(CCc1ccccc1)NC(C)C(O)c1ccc(O)cc1` (stereo unspecified) the Potency was “inactive”.
With `CC[C@@]1(O)C(=O)OCc2c1cc1n(c2=O)Cc2cc3ccccc3nc2-1` the Potency was “inactive”.
In the case of `CC(=O)N1CCN(c2ccc(OC[C@H]3CO[C@](Cn4ccnc4)(c4ccc(Cl)cc4Cl)O3)cc2)CC1`, the Potency is reported as “inactive”.
In the case of `CCCC[N+]1(C)[C@@H]2CC(OC(=O)[C@H](CO)c3ccccc3)C[C@H]1[C@@H]1O[C@@H]12` (stereo partly specified), the “activity change, negative = inhibition” value is reported as inactive: -6.94%.
In the case of `CN1CC[C@@]23CCCCC2C1Cc1ccc(O)cc13` (stereo partly specified), the “activity change, negative = inhibition” value is reported as inactive: 1.9%.
In the case of `CCCCC/C=C\C/C=C\C/C=C\C/C=C\CCCC(=O)N(Cc1ccc(O)c(Cl)c1)Cc1ccc(O)c(Cl)c1`, the Potency is reported as active: 31.6 µM.
`NCCc1cc(O)c(O)cc1O` was tested, and the “activity change, negative = inhibition” value was inactive: -24.6%.
`Clc1cccc(N2CCNCC2)c1` was tested, and the Potency was “inactive”.
`CNC(=O)Oc1ccc2c(c1)[C@@]1(C)CCN(C)[C@@H]1N2C` was tested, and the Potency was “inactive”.
`CC(C)[C@@]1(NC(=O)[C@@H]2C[C@H]3c4cccc5[nH]cc(c45)C[C@@H]3N(C)C2)O[C@@]2(O)[C@H]3CCCN3C(=O)[C@H](Cc3ccccc3)N2C1=O` was tested, and the Potency was “inactive”.
For `O=C(c1ccc2nc(-c3ccco3)c(-c3ccco3)nc2c1)N1CCC2(CC1)OCCO2`, the Potency was active: 28.2 µM.
In the case of `CC(=O)N1CCN(c2ccc(OCC3CO[C@@](Cn4ccnc4)(c4ccc(Cl)cc4Cl)O3)cc2)CC1` (stereo partly specified), the “activity change, negative = inhibition” value is reported as inactive: 0.27%.
In the case of `CN1CCC(c2c[nH]c3ccc(O)cc23)CC1`, the “activity change, negative = inhibition” value is reported as inactive: -13.4%.
In the case of `CC(C)[C@@]1(NC(=O)[C@@H]2C[C@@H]3c4cccc5[nH]cc(c45)C[C@H]3N(C)C2)O[C@@]2(O)[C@@H]3CCCN3C(=O)[C@H](Cc3ccccc3)N2C1=O`, the Potency is reported as “inactive”.
With `NC[C@@H]1O[C@H](OC2[C@@H](CO)O[C@@H](OC3[C@H](O)[C@H](N)C[C@H](N)[C@H]3OC3O[C@H](CO)[C@@H](O)[C@H](O)[C@@H]3N)[C@H]2O)C(N)[C@H](O)[C@@H]1O` (stereo partly specified) the “activity change, negative = inhibition” value was inactive: 3.18%.
In the case of `O=C(O)CCCc1ccc(N(CCCl)CCCl)cc1`, the Potency is reported as “inactive”.
With `c1ccc2c(c1)OC[C@@H](C1=NCCN1)O2` the Potency was “inactive”.
For `C[N+]1(C)[C@@H]2CC[C@H]1CC(OC(=O)[C@@H](CO)c1ccccc1)C2` (stereo partly specified), the Potency was “inactive”.
In the case of `Cc1[nH]c2ccc(O)cc2c1CCN`, the “activity change, negative = inhibition” value is reported as inactive: -0.493%.
`COc1ccc(C(=O)N2CCCC2=O)cc1` was tested, and the Potency was “inactive”.
In the case of `CCCCCCCCCCCCCC(=O)O[C@@H]1[C@@H](C)[C@@]2(O)[C@@H](C=C(CO)C[C@]3(O)C(=O)C(C)=C[C@@H]23)[C@@H]2C(C)(C)[C@]12OC(C)=O`, the “activity change, negative = inhibition” value is reported as inactive: -14.3%.
For `CC[C@@H](CO)NC(=O)[C@H]1C=C2c3cccc4[nH]cc(c34)C[C@H]2N(C)C1`, the “activity change, negative = inhibition” value was inactive: -10.3%.
In the case of `CN(C)C(=O)C(CCN1CCC(O)(c2ccc(Cl)cc2)CC1)(c1ccccc1)c1ccccc1`, the Potency is reported as “inactive”.
`CO[C@H]1CC=C2CCN3CCC4=C(CC(=O)OC4)[C@]23C1` was tested, and the “activity change, negative = inhibition” value was inactive: 1.93%.
In the case of `NC[C@@H]1O[C@H](O[C@H]2[C@@H](O)[C@H](O[C@@H]3[C@@H](O)[C@H](N)C[C@H](N)[C@H]3O[C@H]3O[C@H](CO)[C@@H](O)[C@H](O)[C@H]3N)O[C@@H]2CO)[C@H](N)[C@@H](O)[C@@H]1O`, the “activity change, negative = inhibition” value is reported as inactive: -10%.
With `COc1ccc(-n2nc(C(F)(F)F)cc2-c2ccc(Cl)cc2)cc1` the “activity change, negative = inhibition” value was inactive: -10%.
